Values marked as one replicate rest on one cluster of the flow cell; about a third of the high ones do not repeat.
Tested on: ATP
Assay: switch fluorescence ratio, 500 uM ATP over buffer (Cy3 cluster intensity, sum of 5 cycles each) (fold (ratio)); higher = stronger signal-on switching upon ATP binding; sequences stand for … in TCGTCGGCAGCGTCAGATGTGTATAAGAGACAGTTTTTTTTTTTTTTTTTTTTTTTTT…TC
Conditions: aptamer strand: ATP DNA aptamer (quencher-CACCTGGGGGAGTATTGCGGAGGAAGG + anchor), 100 nM annealed; ATP concentration: 500 uM; one replicate
How it was run: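 Switching-strand clusters labelled with Cy3 on a modified Illumina MiSeq flow-cell were annealed to 100 nM quencher-labelled ATP aptamer, imaged in selection buffer, and re-imaged after 15 min with 500 uM ATP at 22 °C. This was done over five cycles with NaOH stripping and re-annealing in between. The fluorescence ratio is summed target-cycle over summed buffer-cycle Cy3 intensity per cluster, averaged per switch-domain sequence, excluding clusters outside 100-1000 RFU.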
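Note: ATP exposure 15 min at 22 °C before imaging.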

Sequence	switch fluorescence ratio
ACGTTTTCAT	1.02
TGGTACGAAC	1.27
GAGTAGGTAC	1.2
TCAGCATTCG	1.07
ATCTAATTTT	1.01
AATTAATTCG	1.01
ACGTCTACCC	1.39
AAATCTAAAC	1.02
GGGGACCCAC	0.971
AAATCCATA	1.01
ATTTAAACGC	1.02
AGGTATGAGT	0.993
GATTAGCGGC	1.05
GGAAGTAGAG	1.01
ATGTAACATT	0.98
TTGCTTGGCC	1
CTCTCCTTTT	1.04
TACCTACGCG	1.42
CGGTTGGTCA	0.971
GATAGGAGG	1.01
AACTGGGTGT	1.07
CGACGTCAAA	2.76
AAATTTGCTC	0.914
CTCTTTCGGT	1.01
GTAATATTA	0.99
TGCATAT	1.1

Sequence	switch fluorescence ratio
AGACCCACAT	1.28
GACTAGTT	1.02
TTGTGGACTA	0.992
ACGTCTAACA	1.32
GCACGTTGTA	1.04
TGAAGCGGGC	1.22
GTTGTCGCGT	0.987
TCTGTGATG	1.22
TATCATTTAC	1.02
GATTGGTTTA	0.972
ACGCCGCTGG	1.5
GTCATAGGGA	0.986
TAGGAATGCT	1.01
GATTTCAGTT	0.986
TGGTTAATGA	0.976
CGAGTTGCGA	1.01
TCTACATTAG	1.09
ACAATGTGG	0.964
GGCTCAGGTT	1.06
TGCCGCCGTC	0.972
ATTTTTATGT	1.2
TCACAGAGCT	1.03
GGCATCGTCT	0.972
CTTGTCAGAA	0.988
TGTTGCTCAG	0.987
TTACTTTACT	1.34

Sequence	switch fluorescence ratio
CAACGCCCC	1.33
AGGAGCCTGA	0.994
CGAACAAGAG	1.11
GATCAAAATG	0.983
GAGACGCAGG	0.984
TCGAACGCCT	1.33
CGATCAATCA	0.993
AGTTAGTGTT	0.994
TCATTCGACT	1.03
TTTACTAAGC	1.02
GATATCAAGA	1.04
ATAGAGATTT	1.03
TCGGGAGGGC	0.97
AATGAACTTG	1
TTCAACGTCA	1.08
GGTTCTTGTC	0.94
TACCGCAGGC	1.65
GACAGGAAGT	1.01
CTCGGTGCGC	1.01
TGGGAGAGAT	1.04
TGGTTTGTTC	1.01
GGTGGCTACA	0.992
ATCTCAGGTT	1.06
GGAACCCCGG	1.06
AAGTTAATTA	0.997
ATGTTAGGTC	0.969

Sequence	switch fluorescence ratio
ACGTGCTTTA	1.01
GCTATAAC	3.44
ATATCTCATT	1
GCAGCAGGTA	1.11
ATGCGAGAAA	0.96
GGGATACATA	1.03
CGGCGAAGTA	0.953
CTAGCTGGCG	0.917
TGTTTGGTCC	1.01
AGACGAGAGG	1.02
TATAGGTCAC	1.02
CCAGTATTGT	0.991
GGTAGACCTG	0.991
GCAGGGAAGT	0.98
GGCTGCTTAT	1.03
ACCAGGTAGG	1.13
GCCGTGTGTC	0.969
CGGTAAAAG	0.99
CGCTAACTTT	1.1
AACAATCGCG	0.965
TCGCTCTTGT	1.03
TTCGGCTAAT	1.03
AGCCTCAGG	1.06
ATTCGAAACC	3.33
TTGAGCTGGG	0.941
GGGTAAAAGG	0.99

Sequence	switch fluorescence ratio
GTCAGGCGGG	0.989
GTGTATATT	0.978
TCACTTGGAA	0.98
AGAACCGAGT	1.02
GTTGCAGGT	0.972
GGTCCCGG	0.968
GAGATTACAG	0.989
TTGGAATGCG	0.931
CCATCTAACA	0.982
CTGTGGTGCG	0.958
CTCACGAGAA	1.02
TTTTGCCTGT	1.02
GCCAAAGATA	0.979
CACAATGTTC	1.07
TATGGTAGAT	0.984
TTGGCAGCGG	0.977
CAACGCGAAG	1.11
CCGTTTGTAA	1.48
CTATGTGGAT	0.982
CCTATTTTGC	1
GAATTTTTTT	1.02
ACTCGAAATG	1.17
GTTTTGGACA	0.984
GGTACGGTTG	0.938
TTGTTGATTG	0.986
ATGGGCCTTG	0.987

Sequence	switch fluorescence ratio
GTACCGCTCT	1.02
TACGAGGAG	1.04
AGCTTCGGCC	1.13
GCCAGATGG	1.02
CGCAAAGGCG	1.06
CAATCCGTAG	1.16
GAACGGGTTA	1.01
TTATCATGTT	1
TCGGAGTGG	1.02
GAGCAGGCCA	1.18
GCTAGAACGG	0.94
TTCGTGAAAC	1.01
AGCTCTTTTT	1.03
AGCTGCTAT	1.1
TCTTAAAAGC	1.02
GCAACTAAGG	0.995
TTAGAGAAGG	1.07
TTAAGATTGT	0.999
GGATGCCTTA	1
TTGATCCGCG	1.35
ATGCCACCGA	1.05
ACACATTCTT	1.03
ACGGGGACCT	1.1
AAGTCAGTAT	0.968
TTGGCAGATA	0.993
GTATCTACTG	0.999

Sequence	switch fluorescence ratio
GGTTGCGTGC	0.998
GTGGTAAAAA	0.975
TTCGAGTGAT	1.01
AATAAGCCAT	0.999
CCATCGAACG	1.04
TGCCGACCCA	1.05
TAAGTCCGCG	1.1
TGTAATCAG	0.966
AGGCGAATTC	0.999
TTGTGAGCAT	1.04
CGGCCAGTTT	1.03
TCCAGTTAAT	0.997
CGCACGTCGT	0.998
TGCTCAAGGA	1.03
CCCATCGGCC	1.01
GGGATAGTAC	1.11
AATCATGTCC	0.992
ACAATATGAA	1.05
GAGATTCAAT	1.01
TTGGTTTTA	1.02
ACCCCGTACC	1.26
AGCGCGCGGA	1.02
ACGGCTTCGG	1.01
GGGACAGCTT	1.05
CTAGTAGACA	1.04
AAAAATGATT	0.989

Sequence	switch fluorescence ratio
TTGGAGATT	0.992
ATAGGTATAG	0.998
TTTATTGCTG	1.01
GTACAAATCT	1.02
GCTAAATACC	1.11
AGATAGCAAT	1.91
TAGAGGAAGT	1.01
TAACTCATTG	0.999
TCTGGTATCG	0.998
CTGAAAGCGA	2.02
TCTGGATTCC	0.998
ACTACCCTCT	1.13
TCCCCGACGA	2.35
AGCGAGAATA	1
ATGACTTTGC	0.955
GGGTCACTCG	1.04
TGACTCAATT	2.97
CTAGGGTGGG	1.02
AATCTTAATG	0.99
